# Reference: the supplement of paper PMC10126150
# Sequences with one replicate were seen in a single cluster, so their values are uncertain.
# Tested on: ATP
# Assay: switch fluorescence ratio, 500 uM ATP over buffer (Cy3 cluster intensity, sum of 5 cycles each) (fold (ratio)); higher = stronger signal-on switching upon ATP binding; sequences stand for … in TCGTCGGCAGCGTCAGATGTGTATAAGAGACAGTTTTTTTTTTTTTTTTTTTTTTTTT…TC
# Conditions: aptamer strand: ATP DNA aptamer (quencher-CACCTGGGGGAGTATTGCGGAGGAAGG + anchor), 100 nM annealed; ATP concentration: 500 uM; one replicate
# Method in brief: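 For every switch-domain sequence, the fluorescence ratio is the mean of per-cluster values, each being summed target-cycle Cy3 intensity over summed buffer-cycle Cy3 intensity. Clusters outside 100-1000 RFU were excluded. On a modified Illumina MiSeq flow-cell, the Cy3-labelled switching-strand clusters were annealed to 100 nM quencher-labelled ATP aptamer, imaged in selection buffer and then after 15 min with 500 uM ATP at 22 °C. Five such cycles were run, with NaOH stripping and re-annealing between them.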
# 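Also: ATP exposure 15 min at 22 °C before imaging.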
row,Sequence,switch fluorescence ratio
1,GGGACTTGTC,0.996
2,GGGAGAGAGA,1.04
3,GGGAGAGGT,0.964
4,GGGAGCAATG,1.57
5,GGGAGCATA,1.04
6,GGGAGGCTAA,1.04
7,GGGAGTAATT,0.957
8,GGGAGTACGG,0.988
9,GGGAGTATCA,0.986
10,GGGAGTCAAA,1.05
11,GGGAGTCATT,0.982
12,GGGAGTGGAG,1.01
13,GGGAGTGTAG,1.03
14,GGGATCAAAG,1.04
15,GGGATCCACG,1.01
16,GGGATCGCTC,1.03
17,GGGATCTCAC,1.01
18,GGGATGGT,1
19,GGGATGTAC,0.995
20,GGGCAAAAAG,1.01
21,GGGCAAAATA,1.02
22,GGGCAATAGT,2.65
23,GGGCAATCCA,0.994
24,GGGCAATGT,1.18
25,GGGCACAGAG,1
26,GGGCACCGGG,0.942

row,Sequence,switch fluorescence ratio
1,GGGCAGAACC,1.02
2,GGGCAGAACG,0.986
3,GGGCAGGAGC,0.993
4,GGGCATCG,0.963
5,GGGCATTGAC,1.03
6,GGGCCAGACT,1.02
7,GGGCCATCGA,1.01
8,GGGCCCCGTC,1.02
9,GGGCCCTACC,1.06
10,GGGCGAGCTG,0.969
11,GGGCGAGTTA,1.04
12,GGGCGCATTA,0.916
13,GGGCGCCGAG,0.979
14,GGGCGCTCTG,0.984
15,GGGCGCTGCT,1.01
16,GGGCGCTTAT,1.04
17,GGGCGGAGTA,1.34
18,GGGCGGTAGG,0.985
19,GGGCGTAGTG,0.99
20,GGGCGTCAGC,1.01
21,GGGCGTGAAA,0.997
22,GGGCGTGGCC,1.05
23,GGGCGTGTAC,1.02
24,GGGCTAAACA,0.995
25,GGGCTACGGC,1.05
26,GGGCTAGACT,1.05

row,Sequence,switch fluorescence ratio
1,GGGCTATCTG,1.01
2,GGGCTATGGA,0.998
3,GGGCTCACT,1
4,GGGCTCATA,1.03
5,GGGCTCCACG,0.973
6,GGGCTCTTTA,1.02
7,GGGGAACCAA,1.07
8,GGGGACAAAG,0.969
9,GGGGACAGTA,0.976
10,GGGGACTTCA,1.06
11,GGGGAGTGTA,1.01
12,GGGGCAGATT,1.04
13,GGGGCATGCG,1.02
14,GGGGCCGGGC,0.962
15,GGGGCGGATC,0.958
16,GGGGCTCCGA,0.985
17,GGGGCTCTGG,0.974
18,GGGGCTTGTT,0.972
19,GGGGGACAAA,0.983
20,GGGGGACGTG,1.04
21,GGGGGCCGAC,1.01
22,GGGGGCGAAC,1.01
23,GGGGGCGCAG,1.01
24,GGGGGCTCGG,1.01
25,GGGGGCTCGT,0.975
26,GGGGGCTTTC,1

row,Sequence,switch fluorescence ratio
1,GGGGTACTCC,1.03
2,GGGGTAGACG,0.988
3,GGGGTCGTAG,0.975
4,GGGGTCTACT,1.02
5,GGGGTGAACT,1.01
6,GGGGTGATAC,1.13
7,GGGGTGCCT,0.994
8,GGGGTGGTG,0.972
9,GGGGTGT,0.976
10,GGGGTGTTCC,1.08
11,GGGGTTCGCT,1.01
12,GGGGTTGCCC,0.991
13,GGGGTTTGT,0.995
14,GGGTAACCAC,1.06
15,GGGTAAGACG,1.01
16,GGGTACACTG,0.971
17,GGGTACAGAG,0.981
18,GGGTACCAAA,0.99
19,GGGTACCGAT,1.03
20,GGGTACCTCA,1.03
21,GGGTACGCCC,1.05
22,GGGTACTTAC,1.3
23,GGGTAGTACC,1.02
